Source: PMC12498288 (Frontiers in Immunology, 2025)
Like-named read-outs stand apart in the source and are kept apart here.

System: SARS-CoV-2
Conditions: nasopharyngeal

SMILES: O=C(O)c1ccc(F)c(F)c1Nc1ccc(I)cc1Cl [zapnometinib]
- SARS-CoV-2 RNA titer mean change, Diff. Zapnometinib - Placebo (non omicron, Day 3): -0.14 log10 copies/ml
- SARS-CoV-2 RNA titer, Baseline Mean (mean at visit) (non omicron, Day 3): 3.67 log10 copies/ml
- SARS-CoV-2 RNA titer mean change, Diff. Zapnometinib - Placebo (non omicron, Day 5): 0.10 log10 copies/ml
- SARS-CoV-2 RNA titer, Baseline Mean (mean at visit) (non omicron, Day 5): 2.85 log10 copies/ml
- SARS-CoV-2 RNA titer mean change, Diff. Zapnometinib - Placebo (non omicron, Day 8): 0.07 log10 copies/ml
- SARS-CoV-2 RNA titer, Baseline Mean (mean at visit) (non omicron, Day 8): 2.21 log10 copies/ml
- SARS-CoV-2 RNA titer mean change, Diff. Zapnometinib - Placebo (non omicron, Day 11): -0.71 log10 copies/ml
- SARS-CoV-2 RNA titer, Baseline Mean (mean at visit) (non omicron, Day 11): 2.43 log10 copies/ml
- SARS-CoV-2 RNA titer mean change, Diff. Zapnometinib - Placebo (non omicron, Day 15): 0.10 log10 copies/ml
- SARS-CoV-2 RNA titer, Baseline Mean (mean at visit) (non omicron, Day 15): 2.24 log10 copies/ml
- SARS-CoV-2 RNA titer, Baseline Mean (mean at visit) (non omicron, Day 30): 2.00 log10 copies/ml
- SARS-CoV-2 RNA titer mean change, Diff. Zapnometinib - Placebo (omicron, Day 3): -0.63 log10 copies/ml
- SARS-CoV-2 RNA titer, Baseline Mean (mean at visit) (omicron, Day 3): 6.65 log10 copies/ml
- SARS-CoV-2 RNA titer mean change, Diff. Zapnometinib - Placebo (omicron, Day 5): 0.12 log10 copies/ml
- SARS-CoV-2 RNA titer, Baseline Mean (mean at visit) (omicron, Day 5): 5.51 log10 copies/ml
- SARS-CoV-2 RNA titer mean change, Diff. Zapnometinib - Placebo (omicron, Day 8): 1.06 log10 copies/ml
- SARS-CoV-2 RNA titer, Baseline Mean (mean at visit) (omicron, Day 8): 4.09 log10 copies/ml
- SARS-CoV-2 RNA titer mean change, Diff. Zapnometinib - Placebo (omicron, Day 11): 1.25 log10 copies/ml
- SARS-CoV-2 RNA titer, Baseline Mean (mean at visit) (omicron, Day 11): 3.07 log10 copies/ml
- SARS-CoV-2 RNA titer mean change, Diff. Zapnometinib - Placebo (omicron, Day 15): 0.87 log10 copies/ml
- SARS-CoV-2 RNA titer, Baseline Mean (mean at visit) (omicron, Day 15): 2.86 log10 copies/ml
- SARS-CoV-2 RNA titer mean change, Diff. Zapnometinib - Placebo (omicron, Day 30): 1.16 log10 copies/ml
- SARS-CoV-2 RNA titer, Baseline Mean (mean at visit) (omicron, Day 30): 2.60 log10 copies/ml
- SARS-CoV-2 RNA titer mean change, Diff. Zapnometinib - Placebo (participants overall, Day 3): -0.36 log10 copies/ml
- SARS-CoV-2 RNA titer, Baseline Mean (mean at visit) (participants overall, Day 3): 4.78 log10 copies/ml
- SARS-CoV-2 RNA titer mean change, Diff. Zapnometinib - Placebo (participants overall, Day 5): 0.11 log10 copies/ml
- SARS-CoV-2 RNA titer, Baseline Mean (mean at visit) (participants overall, Day 5): 3.78 log10 copies/ml
- SARS-CoV-2 RNA titer mean change, Diff. Zapnometinib - Placebo (participants overall, Day 8): 0.53 log10 copies/ml
- SARS-CoV-2 RNA titer, Baseline Mean (mean at visit) (participants overall, Day 8): 2.78 log10 copies/ml
- SARS-CoV-2 RNA titer mean change, Diff. Zapnometinib - Placebo (participants overall, Day 11): 0.29 log10 copies/ml
- SARS-CoV-2 RNA titer, Baseline Mean (mean at visit) (participants overall, Day 11): 2.42 log10 copies/ml
- SARS-CoV-2 RNA titer mean change, Diff. Zapnometinib - Placebo (participants overall, Day 15): 0.49 log10 copies/ml
- SARS-CoV-2 RNA titer, Baseline Mean (mean at visit) (participants overall, Day 15): 2.16 log10 copies/ml
- SARS-CoV-2 RNA titer mean change, Diff. Zapnometinib - Placebo (participants overall, Day 30): 0.75 log10 copies/ml
- SARS-CoV-2 RNA titer, Baseline Mean (mean at visit) (participants overall, Day 30): 1.93 log10 copies/ml
